The record followed here is PubChem BioAssay (NCATS).

Records with an inconclusive call do not appear. Unless noted, calls follow the shape of the dose curve; as a rule, active = well fitted activation curve with a large enough effect; inconclusive = small, poorly fitted or top-dose-only effect, or effect the other way; inactive = flat fitted curve, though single readings scatter. Not every entry of the source has a single result; some have several. This is not the full list of results. An entry can have further records. Values given together repeat one measurement in other runs, samples, wells, individuals or studies. Some structures have more than one record in an assay (separate samples or runs), and their calls can disagree. What stands in brackets tells the records apart. Letters count within one entry.

A short description of assay [1]: Cellular Toxicity (caspase-3) NIH 3T3 (AID 666).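 Also: caspase signal read after 16 h compound exposure.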 Also: potency is read from the fitted curve at half-maximal effect. In a few lines:
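Mouse NIH 3T3 fibroblasts (1000 cells/well) were treated with compound for 16 hr at 37°C in complete medium; caspase-3/7 activity was read by Caspase-Glo luminescence. Normalized to DMSO and 100 uM tamoxifen; AC50 from Hill fits.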

Assay [2] addresses Estrogen receptor (Homo sapiens) (UniProt P03372). The assay can be described thus: qHTS assay for small molecule agonists of estrogen receptor alpha signaling (AID 588514; calls by dose curve; also: nearly all actives have a fitted effect of over 70% in size; also: potency is read from the fitted curve at half-maximal effect;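 as to activation: 0% = vehicle only and 100% = reference agonist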). In a few lines:
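ER-alpha-UAS-bla GripTite HEK 293 cells in medium with 2% charcoal/dextran-treated FBS were treated with compound titrations at 37 C for 18 hrs; beta-lactamase reporter read by CCF4 fluorescence after 2 hrs at RT.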
Background: In qHTS, concentration-response curves come from the screen itself.

A short description of assay [3]: qHTS assay for small molecule antagonists of peroxisome proliferator-activated receptor delta signaling (AID 588535).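 Also: cells co-treated with a PPAR-delta agonist as stimulator during compound exposure.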 Particulars: HEK293T PPARd-UAS-bla, beta-lactamase FRET ratio, 18 h; 460 nm channel. In short, it runs like this:
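Cell-based beta-lactamase assay in antagonist mode: 4000 HEK293T PPAR-delta-UAS-bla cells per well, 5 hr preincubation then 18 hr compound incubation at 37 C. IC50 obtained by Hill equation fitting.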

UniProt P03372, sequence (P03372 whole entry, looked up): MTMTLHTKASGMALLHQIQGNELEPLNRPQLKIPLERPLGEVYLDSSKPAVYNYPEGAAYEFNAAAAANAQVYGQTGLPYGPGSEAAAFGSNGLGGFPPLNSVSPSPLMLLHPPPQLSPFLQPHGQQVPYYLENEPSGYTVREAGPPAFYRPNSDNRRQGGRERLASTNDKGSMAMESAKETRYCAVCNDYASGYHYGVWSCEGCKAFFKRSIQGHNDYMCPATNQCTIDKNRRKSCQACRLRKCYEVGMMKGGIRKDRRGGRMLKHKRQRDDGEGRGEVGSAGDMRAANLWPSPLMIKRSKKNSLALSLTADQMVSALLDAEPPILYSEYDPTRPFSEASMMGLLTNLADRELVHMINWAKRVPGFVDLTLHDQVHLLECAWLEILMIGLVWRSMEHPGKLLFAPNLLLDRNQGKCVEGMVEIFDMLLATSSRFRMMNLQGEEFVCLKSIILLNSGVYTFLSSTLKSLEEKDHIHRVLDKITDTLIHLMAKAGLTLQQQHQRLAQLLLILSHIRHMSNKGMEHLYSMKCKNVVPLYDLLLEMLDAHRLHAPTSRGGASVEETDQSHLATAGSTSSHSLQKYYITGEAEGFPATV

Turning to `[O]=[Cr](=[O])([OH])[O][Cr](=[O])(=[O])[OH]`, the Potency entry in assay [1] is “active: 50.1 µM [sample A] and inactive [sample B]”.
Consider `CCCCCCCCOC(=O)c1ccccc1C(=O)OCCCCCCCC`, for which the Potency entry in assay [2] is “active: 39.8 µM [sample A] and inactive [sample B]”.
On to `ClC1C(Cl)C(Cl)C(Cl)C(Cl)C1Cl` (stereo not drawn), for which, in assay [3], the max response is 10.7, 24.6, 26.3, -22.3% [separate samples].
